Source: the supplement of paper PMC11417369
± gives the standard deviation of the averaged measurements. This is one part of the list.

Each sequence was assayed on PfAP2-I AP2 domain 3 (GST-tagged) (assay: gcPBM binding intensity (ln(normalized median fluorescence intensity)); higher = stronger DNA binding).
In short: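 Each value is the highest Masliner-normalised natural-log median intensity across replicate spots of either orientation of a probe. The probes were primer-extended double-stranded 36-bp intergenic genomic sequences on an Agilent 4 × 180k array, alongside negative controls, exposed for 1 h to GST-tagged P. falciparum DNA-binding domains expressed in E. coli. Bound protein was picked up with Alexa488 anti-GST antibody and scanned at 488 nm.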

Row | Sequence | gcPBM binding intensity (ln)
1 | TACATATATTTAAGGAGTACAAAAAATAATGATAAA [XGTACX_site3539] | 8.15 ± 0.49
2 | CATACACAGAAACACACACACATATATACATATATA [CACACA_site1094] | 7.67 ± 0.4
3 | TCATATATATTGAAATGTACTTATTTTTTCCTCATA [XGTACX_site6526] | 7.58 ± 0.38
4 | AAAAAAAAAATTATATATATATCCCTTATTTTTTCT [TGCATGCA_negctrl_site151] | 7.54 ± 0.36
5 | TATACATAGAAACACACACACATAAATAAATATATA [CACACA_site1342] | 7.76 ± 0.3
6 | CCTTAAATAATATATTCACACAATATAACAAAAATT [CACACA_site4892] | 7.74 ± 0.59
7 | TGGTATATAAAACACACACACATATGTATATATATA [CACACA_site926] | 8.73 ± 0.25
8 | AAAAAAAAGAATTAGGCACACAATTTTAATATAGGA [CACACA_site1522] | 8.03 ± 0.65
9 | GCATACATCAAGCACACACACACACGCACACGCACA [CACACA_site6311] | 8.59 ± 0.55
10 | ACTACGAATGGTAGAGTGCAGTCTGGAGAAGAGTAC [GTGCAC_site9685] | 9.21 ± 0.3
11 | TTATGTTTCATAAAAAATTAATCAAACATATATAAG [CACACA_negctrl_site666] | 7.28 ± 0.2
12 | TTATGGATGGACAATAATAAAATTTTTACTTTTATT [CACACA_negctrl_site908] | 7.62 ± 0.49
13 | GTGAAGTTCAAAATATGTACTTATGTATGTATTTTT [XGTACX_site165] | 7.57 ± 0.36
14 | TATAAGAAATAAAACCTGATTATAAACCTGTAACCA [CACACA_negctrl_site1302] | 7.46 ± 0.53
15 | TAAATATAACAGAATAATATGTGGATTAATAAATGA [CACACA_negctrl_site438] | 7.81 ± 0.59
16 | AAAAAAAAAAAAAAAACACACATGTATACTAGAATA [CACACA_site7108] | 8.61 ± 0.46
17 | TTAAGTTACAATTCTCGTACACATTAAAAGAAAATT [XGTACX_site699] | 7.72 ± 0.43
18 | ATATAATATGTTGAATGTACTTAAAAAAATGTATCT [XGTACX_site5385] | 7.72 ± 0.46
19 | TTACAAATGTAGAAAAGTACATATAATAATAATTTA [XGTACX_site3044] | 7.66 ± 0.53
20 | GGTAGAAAATCAGTTAAACACACACCGAAAAAAAAA [CACACA_site8934] | 8.06 ± 0.6
21 | ATTTGTATAATAAGTTGTACAATTCTTACAATATAA [XGTACX_site4164] | 7.77 ± 0.26
22 | AAAAAAAAAAAAAGCACACACACATATGCGTATATA [CACACA_site953] | 8.46 ± 0.42
23 | TTTAAGCGTTCACTGCTGCACTTTTATGTTGTGACC | 8.71 ± 0.35

Row | Sequence | gcPBM binding intensity (ln)
24 | ATGGATAATAATAAGTGTACACATATATTTAGAAGA [XGTACX_site244] | 8.13 ± 0.38
25 | TTTGTTCAATTTACATGTACAGATATAATCTAACAT [XGTACX_site370] | 7.68 ± 0.34
26 | ATTTTTATTTTATATACACACAATAATAATATAATA [CACACA_site4015] | 7.83 ± 0.43
27 | TCTATTAAAACAAATTGTACTTATTGATAAAGAATA [XGTACX_site3645] | 7.795 ± 0.007
28 | TCCTATTTTATATAATGTACATAAATATATTACATA [XGTACX_site2720] | 7.85 ± 0.34
29 | AAGAGCAACCAAATAGAAAAAGGAAAATAAAAGGAA [CACACA_negctrl_site100] | 7.56 ± 0.71
30 | AAATTTTTTTTTTAATTTTTTATTTAAAAAAAATAT [TGCATGCA_negctrl_site174] | 7.42 ± 0.33
31 | GTTATAAATAAATATACACACATATATAAAATACAT [CACACA_site7146] | 7.68 ± 0.58
32 | TATAACATAAAACACACACACATACATACACAAAAA [CACACA_site1804] | 8.04 ± 0.32
33 | CGCTTTATTTATATATGTACATATATATATATATAC [XGTACX_site5012] | 7.96 ± 0.42
34 | AAGGCAAACAGACACACACACATATATACCTATATA [CACACA_site7077] | 7.86 ± 0.62
35 | GTTGCCATCATTTGGCGTACAGTCAAAACCAAATCT [XGTACX_site1398] | 7.91 ± 0.45
36 | GTTATACACATTACATGTACAAAAGTTGCACTTCAT [XGTACX_site6023] | 8.79 ± 0.13
37 | ATTATAAGAAGGGGGGGTACATAAATATAAATGTAT [XGTACX_site5624] | 10.1 ± 0.23
38 | TTAATAATTAATTATAGTACACATTTATATTAATAA [XGTACX_site190] | 7.915 ± 0.064
39 | TTATTTAAAAAATTTTTAAATATACAAAAAAAAAAA [TGCATGCA_negctrl_site464] | 7.82 ± 0.86
40 | TTTAATTTTCGGTGTGCACACAACTATGAGTTTTTA [CACACA_site3034] | 9.565 ± 0.035
41 | TTTAAAAAAAAAAATACACACATAAAAATTTTCAAA [CACACA_site703] | 7.46 ± 0.54
42 | ATATAAATAAAATATACACACATAAATATAACGACA [CACACA_site1637] | 7.93 ± 0.59
43 | AACATTTCCTTTCTGTGTACATATAAACCCATCTAT [XGTACX_site2071] | 8.13 ± 0.64
44 | ACGAAGATTTATCTTGCACACGCAAAAAAAAAAAAA [CACACA_site7933] | 8.79 ± 0.47
45 | AAAAAAAAAAAAAAAGCATGCACATATTATTTTTTT [TGCATGCA_site416] | 8.62 ± 0.67
46 | ATTATATTTTGTAAATGTACATTTATATATTTTGTA [XGTACX_site1226] | 7.68 ± 0.57

Row | Sequence | gcPBM binding intensity (ln)
47 | ATTCATAAACGTGTGTTAATATGAATTTAAACATAA [XGTACX_negctrl_site213] | 7.57 ± 0.58
48 | GTATAAAAAAATAAAAGTACAAAAAAAAAAGACTGA [XGTACX_site186] | 7.97 ± 0.52
49 | AAATAAAAAATATGAACACACATATATAACAAAATA [CACACA_site261] | 7.74 ± 0.81
50 | TTTTTTTTTTTTTTTTTTTTTTTTTTTTTTTTTTTT [CACACA_negctrl_site104] | 10.4 ± 0.21
51 | AGGATTAAAAAAACATGTACGTATTTAAATATATTT [XGTACX_site8774] | 7.96 ± 0.53
52 | TACTGGTATCGATATAGTACATATAATATTATGTTA [XGTACX_site7490] | 7.62 ± 0.49
53 | AATTGAATAAATTAAACATGCACAGATGTTCTATTT [TGCATGCA_site692] | 7.75 ± 0.67
54 | TTTGTGTTTATAAATTGTACAAAGGTGCAAGAAGAA [XGTACX_site2159] | 11.1 ± 0.87
55 | AAAAAAAAAAAAAACACACACACACCCATAAATATA [CACACA_site151] | 8.38 ± 0.47
56 | AGGATATATAAGTATACACACATATTTATATTTATA [CACACA_site6239] | 7.44 ± 0.55
57 | TTTTTTTTTTTTTTTTTTTTCACATGTGTGGAAAAA [GTGCAC_negctrl_site352] | 8.37 ± 0.94
58 | TTAAAATATACATAAACACACACAAAACGTTTAAGA [CACACA_site8267] | 7.83 ± 0.64
59 | AATTTAAAATATATAGTACACACGTGAACACAAATA [CACACA_site416] | 8.01 ± 0.3
60 | TAACAATAACTTTATACACACATAATATATATATAT [CACACA_site3543] | 9.05 ± 0.15
61 | TGTATTTATAATAAAACACACATTTTTAATGTGCTC [CACACA_site4908] | 7.4 ± 0.4
62 | TGTTGTCCTAATTCTACACACAATGGTTTATTAAAA [CACACA_site2648] | 8.12 ± 0.52
63 | CATATACTTCTGTGCACACGAATATTTTTCTTCTTC [CACACA_site1407] | 10.3 ± 0.3
64 | TTTTAACGTAAAACATTGATGATATAAAAAATAGGA [GTGCAC_negctrl_site540] | 7.92 ± 0.46
65 | TATACTCATATTTTTACACACATATTTTTTCATATA [CACACA_site5412] | 7.88 ± 0.45
66 | ATCCACTTTTTGAAGACACACACAAAAAAAAAAAAA [CACACA_site8818] | 8.04 ± 0.4
67 | AATTAGATGGATAAATGTACATAATGTGAATATATT [XGTACX_site86] | 8.09 ± 0.74
68 | TAAAAATAATTTGCATGTACATAGGTCGATGTATTT [XGTACX_site1357] | 7.88 ± 0.48
69 | TGTAAATTATAACGTGCACACATATTTAAAATGAAA [CACACA_site8915] | 11.2 ± 0.15

Row | Sequence | gcPBM binding intensity (ln)
70 | AGATATTTATTGAGTGCATGTTATAAAGGGAAAAAA [TGCATGCA_site88] | 9.04 ± 0.17
71 | ATATAGAAAATGCATACACACTTTATAAATATATTT [CACACA_site6553] | 7.92 ± 0.53
72 | TATTTTTATTATATGGTGCATATATACATACATATA | 10.7 ± 0.79
73 | TTCAAGCCCTTCTGCTTACACACAGTAATTATTGTG [CACACA_site2952] | 7.74 ± 0.66
74 | AAGTGCATATTATTCACACATAATAATTGTATACCT [CACACA_site5965] | 10.3 ± 0.47
75 | AAAAAAAAAAAACACACACACAATAGTATATAAATC [CACACA_site956] | 7.87 ± 0.61
76 | ATATGATCATAAAACACACACACAAAAAAAAAAAAA [CACACA_site1806] | 7.95 ± 0.75
77 | CAAATAAAAACAAAACGTACGAATAAATTATTGTTA [XGTACX_site5136] | 7.54 ± 0.47
78 | CACATATAAATATTAACACACATAATGAATTATATA [CACACA_site2741] | 7.83 ± 0.28
79 | TATTTGATCTAAAGAGCATGCAAAAACGAACAAGAT [TGCATGCA_site136] | 8.54 ± 0.64
80 | ATATCGTTATTTTTATGTACTAAAATATTTAATTAT [XGTACX_site3516] | 8.04 ± 0.53
81 | TTTTTTTTTTATTGTACATGCAAAAAATTCCACACA [TGCATGCA_site279] | 8.31 ± 0.32
82 | AGCATATTATTTTAGGTGCACTTGAAATGTGTTAAC | 10.7 ± 0.35
83 | TTTAAATAAAATATTACACACTTAGAAAGATATATA [CACACA_site7684] | 7.41 ± 0.48
84 | TACACCCACCCACATACACACACATACACATATATA [CACACA_site8503] | 8.35 ± 0.22
85 | CCACTTAAAATAAAAAGTACATACAGGTGTTATACA [XGTACX_site8124] | 7.88 ± 0.34
86 | AAATTGGTTCATCAATGTACATGTAAAATAAATCAA [XGTACX_site4795] | 7.87 ± 0.41
87 | TAATGAGGAAATACAGCACACGTTATTACACTTTTC [CACACA_site5399] | 8.49 ± 0.52
88 | AATAATGTTATAAATTGTACGTGTATTATTCATTAC [XGTACX_site894] | 7.84 ± 0.35
89 | TATATTTATCCATACAAGAAAAAAAAAAAAAAAATA [CACACA_negctrl_site1328] | 7.44 ± 0.35
